PubChem BioAssay AID504706 (National Center for Advancing Translational Sciences (NCATS), 2011)
About 200 (0.062%) of roughly 320,000 compounds were called active. The shares of active, inactive and inconclusive entries below differ from those in the screen. Calls come from the whole dose curve; as a rule, active = well fitted activation curve with a large enough effect; inconclusive = small, poorly fitted or top-dose-only effect; inactive = no such curve, though single readings can be large or run the other way. No potency is given beside an inconclusive call; the fits are too rough.

test: qHTS assay for re-activators of p53 using a Luc reporter; details: H1299 p53-A138V BP100-luciferase reporter, luminescence, 24 h; series mostly up to 92.2 µM; activity change, positive = activation: at the top concentration; note: nearly all actives have a fitted effect of over 45% in size; for activity change, positive = activation: % of control where 0% means no effect
In short: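 H1299 (p53-null), stable ts p53-A138V + BP100-Luc; 1000 cells/well, Opti-MEM/10% FBS; cpd 4 pt, 1:5; 24 h, 37 deg C, 5% CO2; detection reagent 10 min RT; luminescence.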
Potency is the fitted concentration of half-maximal effect; tags give direction and shape of the fitted curve.

Compound | Potency | activity change, positive = activation
COC(=O)CCC(=O)c1oc2ccc(OC)cc2c1N | inconclusive [activator, full curve, poor fit] | –
OCCNc1nc(Nc2ccc(Br)cc2)nc2ccccc12 | – | inactive: 11.1%
O=C(Cc1ccccc1)NN1C(=O)/C(=C/c2ccc(C(=O)O)cc2)SC1=S | – | inactive: 1.77%
COc1ccc(C(=O)CNc2ccccc2Br)cc1 | inconclusive [activator, full curve, poor fit] | –
Cc1ccc(NC(=S)N/N=C/c2c(Cl)cccc2Cl)c(C)c1 | inconclusive [activator, full curve, poor fit] | –
CC(C)c1ccc(N=C2NN=C(c3cccs3)CS2)cc1 | inconclusive [activator, single point] | –
CCOc1ccc(/C=N/NC(=O)CN2CCSCC2)cc1 | inconclusive [activator, partial curve, poor fit] | –
O=C1CCCc2nn(-c3ccccc3)nc21 | inconclusive [activator, partial curve, poor fit] | –
FC(F)(F)c1cccc(OCCN2CCN(Cc3ccccc3)CC2)c1 | inconclusive [activator, single point] | –
O=C(Nc1ccc(-c2nnc(-c3ccccc3)o2)cc1)C(F)(F)F | inconclusive [activator, partial curve, poor fit] | –
Cc1ccc2nc(C(F)(F)F)c(C#N)c(N)c2c1 | inconclusive [activator, partial curve, poor fit] | –
CCN(C(=O)CN1C(=O)/C(=C/c2ccccc2)SC1=S)C1CCS(=O)(=O)C1 (configuration not stated) | inconclusive [activator, partial curve, poor fit] | –
CCC(=O)NC(=S)Nc1cccc(NC(=O)c2ccccc2)c1 | – | inactive: 9.29%
COc1ccc(CCN2CCCC(CN(C)C(=O)c3ccoc3)C2)cc1 (configuration not stated) | inconclusive [activator, partial curve, poor fit] | –
Cn1c(-c2ccccn2)[n+](C)c2ccccc21 | – | inactive: -2.23%
Cc1n[nH]c(=S)n1/N=C/c1ccccc1OCc1ccc(Cl)cc1Cl | – | inactive: 13%
COC(=O)C1=C(NC(C)=O)CCS1 | inconclusive [activator, partial curve, poor fit] | –
COc1ccc(/C=N/NC(=O)Cc2cccs2)cc1 | – | inactive: 8.16%
COc1ccc(/C=C/C2=Nc3ccccc3NC(C)(C)C2)cc1OC | – | inactive: 9.6%
CC(C)(C)c1ccc(C(=O)NC(=S)NNC(=O)COc2ccccc2)cc1 | inconclusive [activator, partial curve, poor fit] | –
O=C(CCCCl)Nc1nc(-c2ccc3c(c2)OCCO3)cs1 | inconclusive [activator, partial curve, poor fit] | –
CCOCCCn1c(SCc2nc3ccccc3s2)nc2ccccc2c1=O | inconclusive [activator, partial curve, poor fit] | –
COc1ccc(NC(=O)c2cc3ccccc3[nH]2)cc1 | inconclusive [activator, partial curve, poor fit] | –

Compound | Potency | activity change, positive = activation
CC(C)c1ccc2[nH]c(O)c(N=NC(=O)c3ccc(CSc4nncn4C)cc3)c2c1 | inconclusive [activator, single point] | –
Nc1ccn(CC(=O)NCc2ccccc2)c(=O)n1 | inconclusive [activator, partial curve, poor fit] | –
Cc1cc2ccccc2c(=O)n1CC(=O)N1CCN(c2cccc(Cl)c2)CC1 | – | inactive: 5.7%
COc1ccc(Nc2nc(C)c3ccccc3n2)cc1 | inconclusive [activator, partial curve, poor fit] | –
O=C(CCCOc1ccccc1)N1CCN(c2ccccn2)CC1 | inconclusive [activator, full curve, poor fit] | –
CCOC(=O)c1ccccc1NC(=O)c1cn(-c2ccc(OC)cc2)c(=O)c2ccccc12 | – | inactive: -21.5%
Cc1c(N=Cc2nc3ccccc3[nH]2)c(=O)n(-c2ccccc2)n1C | – | inactive: 20.9%
Cc1cccc(C(=O)Nc2nnc(S(=O)(=O)N3CCOCC3)s2)c1 | inconclusive [activator, single point] | –
COc1ccc(N2CS(=O)(=O)/C(=C/N(C)C)C2=O)cc1 | inconclusive [activator, partial curve, poor fit] | –
Cn1c(NC(=S)Nc2ccccc2)nc2ccccc21 | inconclusive [activator, partial curve, poor fit] | –
Cc1ccc(NN=Nc2nc3c([nH]2)c(=O)n(C)c(=O)n3C)cc1 | inconclusive [activator, full curve, poor fit] | –
Cc1csc(SCC(=O)Nc2ccc(C)c(F)c2)n1 | inconclusive [activator, partial curve, poor fit] | –
CCCN1C(=O)/C(=C2\SC(N3CCCCC3)=NC2=O)c2ccccc21 | inconclusive [activator, partial curve, poor fit] | –
COc1ccc(-n2cnc3cc(N)ccc32)cc1 | inconclusive [activator, partial curve, poor fit] | –
CC(Cc1ccccc1)NC(=O)c1ccc([N+](=O)[O-])cc1 (configuration not stated) | inconclusive [activator, full curve, poor fit] | –
C/C(=N\NC(=O)c1nn(C)c(C)c1Br)c1ccc(NC(=O)c2ccccc2F)cc1 | inconclusive [activator, full curve, poor fit] | –
COc1ccc([C@H]2CC(=O)C=C(c3ccc(OC)c(F)c3)C2)cc1 | inconclusive [activator, partial curve, poor fit] | –
CN(Cc1ccccc1)S(=O)(=O)c1ccc2[nH]cc(C(=O)NCC3CCCO3)c(=O)c2c1 (configuration not stated) | inconclusive [activator, partial curve, poor fit] | –
CC(Oc1cccc(F)c1)C(=O)/C=C\N(C)C (configuration not stated) | inconclusive [activator, single point] | –
Cc1ccc(Oc2ccc(S(=O)(=O)N3CCOCC3)cc2C(N)=O)c(-n2nc3ccccc3n2)c1 | – | inactive: 3.57%
O=C(Nc1ccccc1)ON=C1CCCC1 | inconclusive [activator, full curve, poor fit] | –
Cc1ccccc1Nc1nnc(SCC(=O)Nc2ccccc2[N+](=O)[O-])s1 | inconclusive [activator, partial curve, poor fit] | –
O=C(Nc1cccc(Cl)c1)c1cc(-c2ccco2)on1 | – | inactive: 11.3%

Compound | Potency | activity change, positive = activation
CC1=NN(C(N)=S)C(=O)C1N=Nc1ccc(C)cc1C (configuration not stated) | inconclusive [activator, full curve, poor fit] | –
O=C(O)c1ccc(N=Nc2c(O)[nH]c3ccc(Br)cc23)cc1 | inconclusive [activator, full curve, poor fit] | –
CC1(C)CC(=O)c2sc(NS(=O)(=O)Cc3ccccc3)nc2C1 | inconclusive [activator, partial curve, poor fit] | –
Cc1ccc(-c2cn3cccnc3n2)cc1NC(=O)c1c(-c2ccccc2Cl)noc1C | – | inactive: -3.08%
N#CCCN1CCN(C(=S)c2ccc(-c3ccc(Cl)c(Cl)c3)o2)CC1 | – | inactive: 4.18%
O=C(NN1CCOCC1)c1ccc(Cl)c([N+](=O)[O-])c1 | inconclusive [activator, partial curve, poor fit] | –
N#Cc1nc(-c2cccs2)oc1N1CCN(Cc2ccccc2)CC1 | inconclusive [activator, single point] | –
COc1ccc(-c2nc(-c3ccccc3)c(-c3cccs3)[nH]2)cc1OC | – | inactive: -6.83%
Cc1cc(=O)[nH]c(N/N=C/c2ccc(Br)s2)n1 | inconclusive [activator, partial curve, poor fit] | –
COc1cccc(NC(=O)C2CCN(Cc3cnn(-c4ccccc4)c3-n3cccc3)CC2)c1 | inconclusive [activator, single point] | –
O=C(COc1ccccc1)NC1CCCCCCC1 | – | inactive: 7.95%
O=C1OC(CN2CCOCC2)CN1N=Cc1ccc([N+](=O)[O-])o1 (configuration not stated) | – | inactive: 5.48%
CN(C)c1oc(-c2ccc(OCc3ccc(Cl)cc3)cc2)nc1C#N | – | inactive: 3.82%
O=C(CCNS(=O)(=O)c1ccccc1C(F)(F)F)N1CCN(C(c2ccccc2)c2ccccc2)CC1 | inconclusive [activator, single point] | –
CC(C)Sc1nnc(Nc2ccccc2)s1 | inconclusive [activator, full curve, poor fit] | –
COc1ccc(-c2cc3cccc(OC)c3oc2=O)cc1 | inconclusive [activator, full curve, poor fit] | –
COc1ccc(/C=C/C(=O)c2ccccn2)cc1 | inconclusive [activator, partial curve, poor fit] | –
COc1ccccc1N1CCN(Cc2ccco2)CC1 | inconclusive [activator, partial curve, poor fit] | –
CCCC1CC(C)(c2csc(Nc3ccc(OCC)cc3)n2)OC1=O (configuration not stated) | inconclusive [activator, partial curve, poor fit] | –
COc1ccnc2c1c(=O)n(Cc1ccc(Cl)cc1Cl)c(=O)n2C | – | inactive: -16.4%
O=C(NCc1cccnc1)c1ccc2c(=O)n(CCCN3CCCC3=O)c(=S)[nH]c2c1 | inconclusive [activator, single point] | –
